What was measured:
neurotrophin-4 (NT-4) [1] = target: T1, neurotrophin-4 (NT-4) (UniProt P34130 81-210); assay: SPR (Biacore T200), fusion protein captured on Protein A chip, single cycle kinetics, 1:1 model
T1 construct: also called NT-4/5; NT4/5
T1 sequence (looked up): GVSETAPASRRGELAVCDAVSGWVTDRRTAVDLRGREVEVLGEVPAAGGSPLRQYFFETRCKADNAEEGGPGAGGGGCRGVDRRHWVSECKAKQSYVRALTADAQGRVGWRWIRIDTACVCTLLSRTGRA

[2] = target: T2, nerve growth factor (NGF) (UniProt P01138 fragment, limits assumed); assay: as above
[3] = target: T3, brain-derived neurotrophic factor (BDNF) (UniProt P23560 129-247); assay: as above
T3 sequence (looked up): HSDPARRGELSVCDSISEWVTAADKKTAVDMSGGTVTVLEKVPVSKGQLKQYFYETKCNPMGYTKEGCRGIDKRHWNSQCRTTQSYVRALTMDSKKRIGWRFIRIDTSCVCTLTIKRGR

neurotrophin-3 (NT-3) [4] = target: T4, neurotrophin-3 (NT-3) (UniProt P20783 139-257); assay: as above
T4 sequence (looked up): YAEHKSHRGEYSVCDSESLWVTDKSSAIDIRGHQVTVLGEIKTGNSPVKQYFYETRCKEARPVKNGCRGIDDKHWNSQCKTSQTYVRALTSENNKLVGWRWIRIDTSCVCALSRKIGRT

neurotrophin-4 (NT-4) [5] = target: T1, neurotrophin-4 (NT-4); assay: cell-based or functional assay
[6] = target: T2, nerve growth factor (NGF); assay: cell-based or functional assay
T2 sequence (P01138 122-241 limits assumed): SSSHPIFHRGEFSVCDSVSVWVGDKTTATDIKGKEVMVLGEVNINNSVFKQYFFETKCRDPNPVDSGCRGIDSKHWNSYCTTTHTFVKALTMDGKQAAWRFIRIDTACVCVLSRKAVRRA

neurotrophin-3 (NT-3) [7] = target: T4, neurotrophin-3 (NT-3); assay: cell-based or functional assay
neurotrophin-4 (NT-4) [8] = target: T1, neurotrophin-4 (NT-4); assay: SPR (Biacore), corresponding figures for the reference fusion protein
[9] = target: T2, nerve growth factor (NGF); assay: as above
[10] = target: T3, brain-derived neurotrophic factor (BDNF); assay: as above
neurotrophin-3 (NT-3) [11] = target: T4, neurotrophin-3 (NT-3); assay: as above

B1: Truncated p75NTR(NBP)-Fc fusion protein (SEQ ID No. 1) (Fc fusion)
chain: KEACPTGLYTHSGECCKACNLGEGVAQPCGANQTVCEPCLDSVTFSDVVSATEPCKPCTECVGLQSMSAPCVEADDAVCRCAYGYYQDETTGRCEACRVCEAGSGLVFSCQDKQNTVCEECPDGTYSDEANHVDPCLPCTVCEDTERQLRECTRWADAECEEIPGGGG[human IgG1 Fc with changes not shown]
notes: The Rmax calculation uses a fusion protein molecular weight of 87,000; also called Truncated p75NTR-Fc; Truncated p75-Fc
Kd (neurotrophin-4 (NT-4) [1]): 0.1 nM
Kd [2]: 0.5 nM
Kd [3]: 0.05 nM
Kd (neurotrophin-3 (NT-3) [4]): 0.02 nM
IC50, inhibition of NT-4-induced activation of TrkB (neurotrophin-4 (NT-4) [5]): 1 nM
IC50, inhibition of NGF-induced activation of TrkA [6]: 1.5 nM
IC50, inhibition of NT-3-induced activation of TrkC (neurotrophin-3 (NT-3) [7]): 0.5 nM

B2: p75NTR(NBP)-Fc fusion including stalk region (SEQ ID No. 3) (Fc fusion)
chain: KEACPTGLYTHSGECCKACNLGEGVAQPCGANQTVCEPCLDSVTFSDVVSATEPCKPCTECVGLQSMSAPCVEADDAVCRCAYGYYQDETTGRCEACRVCEAGSGLVFSCQDKQNTVCEECPDGTYSDEANHVDPCLPCTVCEDTERQLRECTRWADAECEEIPGRWITRSTPPEGSDSTAPSTQEPEAPPEQDLIASTVAGVVTTVMGGGG[human IgG1 Fc with changes not shown]
notes: also called p75NTR-Fc
Kd (neurotrophin-4 (NT-4) [8]): 0.181 nM
Kd [9]: 0.525 nM
Kd [10]: 0.048 nM
Kd (neurotrophin-3 (NT-3) [11]): 0.014 nM
